Values marked as one replicate rest on one cluster of the flow cell; about a third of the high ones do not repeat.
Tested on: ATP
Assay: switch fluorescence ratio, 500 uM ATP over buffer (Cy3 cluster intensity, sum of 5 cycles each) (fold (ratio)); higher = stronger signal-on switching upon ATP binding; sequences stand for … in TCGTCGGCAGCGTCAGATGTGTATAAGAGACAGTTTTTTTTTTTTTTTTTTTTTTTTT…TC
Details: aptamer strand: ATP DNA aptamer (quencher-CACCTGGGGGAGTATTGCGGAGGAAGG + anchor), 100 nM annealed; ATP concentration: 500 uM; one replicate
Outline: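 Clusters with intensities outside 100-1000 RFU were excluded. The remaining Cy3-labelled switching-strand clusters on a modified Illumina MiSeq flow-cell had been annealed to 100 nM quencher-labelled ATP aptamer and imaged in selection buffer, then after 15 min with 500 uM ATP at 22 °C, for five cycles separated by NaOH stripping and re-annealing. The fluorescence ratio, averaged per switch-domain sequence, is each cluster's summed target-cycle Cy3 intensity over its summed buffer-cycle Cy3 intensity.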
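Note: ATP exposure 15 min at 22 °C before imaging.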

Row | Sequence | switch fluorescence ratio
1 | TCGTCGGCCA | 1.03
2 | TCGTCTCTAA | 0.967
3 | TCGTCTGCTG | 0.98
4 | TCGTCTTGGC | 0.982
5 | TCGTGAGACT | 1.08
6 | TCGTGATTCG | 1.03
7 | TCGTGGGAGT | 0.984
8 | TCGTGTACTT | 0.965
9 | TCGTGTCCC | 0.963
10 | TCGTGTCGAG | 0.973
11 | TCGTGTGTGG | 0.943
12 | TCGTTAACTT | 0.999
13 | TCGTTAAGGA | 0.996
14 | TCGTTACACT | 1.1
15 | TCGTTCCTGA | 0.989
16 | TCGTTGAGTC | 1.05
17 | TCGTTGCTCT | 1.11
18 | TCGTTGGAAC | 0.989
19 | TCGTTGTGAT | 1.02
20 | TCGTTTGCGC | 1.02
21 | TCGTTTTCTG | 1.02
22 | TCTAAAGAGT | 1.01
23 | TCTAACATGG | 1.01
24 | TCTAACCGAG | 1.15
25 | TCTAAGAGCT | 0.937
26 | TCTAAGTCGT | 0.914

Row | Sequence | switch fluorescence ratio
27 | TCTACTAGAC | 1.23
28 | TCTACTCTT | 0.997
29 | TCTAGAAAGG | 0.975
30 | TCTAGACTTT | 1
31 | TCTAGATGTG | 1
32 | TCTAGCGCCA | 1.07
33 | TCTAGCGCGA | 1.28
34 | TCTAGCGTTT | 1.02
35 | TCTAGGAAGA | 0.987
36 | TCTAGGATTA | 0.976
37 | TCTAGGCAAA | 1.21
38 | TCTATACTAA | 1.04
39 | TCTATAGAG | 0.979
40 | TCTATATCCT | 1.03
41 | TCTATATTTG | 1.02
42 | TCTATCATGG | 0.951
43 | TCTATCCTTT | 0.996
44 | TCTATCTACG | 1.05
45 | TCTCAACGTA | 1.07
46 | TCTCAAGGTC | 1.01
47 | TCTCAATGGG | 1.03
48 | TCTCAGCCAT | 1.13
49 | TCTCATAGCT | 0.999
50 | TCTCATAGG | 1.04
51 | TCTCATGACT | 1.04
52 | TCTCATGAGT | 0.99

Row | Sequence | switch fluorescence ratio
53 | TCTCCACTCG | 1.17
54 | TCTCGAAATC | 1.05
55 | TCTCGCGGCC | 1.11
56 | TCTCGGGCAA | 6.84
57 | TCTCGGGGTT | 1.05
58 | TCTCGGTAGC | 0.974
59 | TCTCGGTCGA | 0.996
60 | TCTCGTGGT | 1.04
61 | TCTCGTTTGG | 0.992
62 | TCTCTAAAGT | 1
63 | TCTCTAACTC | 1.06
64 | TCTCTAGAG | 0.972
65 | TCTCTCAA | 1.23
66 | TCTCTCCCAG | 5.32
67 | TCTCTCGTGC | 1.31
68 | TCTCTGATAG | 1.03
69 | TCTCTGCTGA | 1.81
70 | TCTCTGTAG | 1.01
71 | TCTCTTTACG | 1.03
72 | TCTGAAAAGC | 0.977
73 | TCTGAACTAT | 1.03
74 | TCTGACCCTG | 0.971
75 | TCTGAGA | 0.989
76 | TCTGAGGTAA | 1.55
77 | TCTGATATTC | 1.01
78 | TCTGATGGGC | 1.09

Row | Sequence | switch fluorescence ratio
79 | TCTGATTTTG | 1.04
80 | TCTGCAACAT | 1.62
81 | TCTGCATAAG | 1.15
82 | TCTGCCACGT | 0.996
83 | TCTGCGTCC | 1.1
84 | TCTGGCGGCT | 1.04
85 | TCTGGGGACA | 0.959
86 | TCTGGTACCT | 1.08
87 | TCTGGTATAG | 1.02
88 | TCTGGTATT | 1.03
89 | TCTGGTATTA | 0.992
90 | TCTGGTTTCC | 1.04
91 | TCTGTAATCT | 1.08
92 | TCTGTAGTTA | 1.15
93 | TCTGTATTC | 0.991
94 | TCTGTCACCA | 1.1
95 | TCTGTCCAAA | 0.983
96 | TCTGTCCCGA | 0.972
97 | TCTGTGCCAT | 1.02
98 | TCTGTGGAAA | 1.04
99 | TCTGTTACC | 1.06
100 | TCTGTTGCCG | 0.967
101 | TCTGTTTTCT | 0.954

— the supplement of paper PMC10126150
